From PMC12032302, “A20 attenuates oxidized self-DNA-mediated inflammation in acute kidney injury” (Signal Transduction and Targeted Therapy, 2025)
These are yes or no findings as the source states them, for the method shown. For some assays here: In cells and extracts the contact can be indirect. Some results given as binding are weak or reduced against the parent protein; the word gives no strength.

Chains of the proteins cited; added tags and fusions are not shown. Lines headed by an entry give the natural chain unless they say otherwise; changes in a name come on top.
UniProt Q9ES74: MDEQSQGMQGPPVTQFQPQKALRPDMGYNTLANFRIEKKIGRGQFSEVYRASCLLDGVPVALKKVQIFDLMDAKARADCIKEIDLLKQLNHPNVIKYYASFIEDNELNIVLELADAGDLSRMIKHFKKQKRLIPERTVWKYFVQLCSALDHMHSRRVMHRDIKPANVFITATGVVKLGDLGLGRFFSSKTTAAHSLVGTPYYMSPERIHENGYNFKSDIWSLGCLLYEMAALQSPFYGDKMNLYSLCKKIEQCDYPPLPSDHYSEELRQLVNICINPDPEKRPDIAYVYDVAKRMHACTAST

How the values were obtained:
biotin-labeled P-II = target: T1, biotin-labeled P-II; assay: pull-down; lysate of HEK293T transfected with HA-NEK7 plasmids incubated with biotin-conjugated peptide overnight at 4 °C; streptavidin magnetic beads; immunoblot for HA-NEK7; only the target purified
T1 sequence (peptide, biotin (position not stated)): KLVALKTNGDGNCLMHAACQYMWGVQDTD

A20-derived peptide P-II = target: T2, A20-derived peptide P-II; assay: BLI; 3×HA-NEK7 (WT or Tri-MUT) purified from HEK293T with HA antibody; legend: P-II diluted into the indicated concentrations; methods: peptide immobilised on AR2G biosensors; 1:1 binding model; both purified
T2 sequence (peptide): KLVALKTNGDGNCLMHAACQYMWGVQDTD

| binding (biotin-labeled P-II) | binding (A20-derived peptide P-II) | Substance |
| --- | --- | --- |
| binds | – | HA-NEK7 (mouse NIMA-related kinase 7, wild type) (from UniProt Q9ES74 1-302) |
| – | no binding | HA-Tri-MUT-NEK7 (mouse NEK7 K130A, L132R, K140A) (from UniProt Q9ES74 1-302) |
